Whole data set: some 33,000 sequences, median “E-score (-0.5 to 0.5)” near -0.041, cut for the highest 2% near 0.37. The list shows a part of the results.
Target: T1, Ecm22 (UniProt Q05958)
T1 sequence: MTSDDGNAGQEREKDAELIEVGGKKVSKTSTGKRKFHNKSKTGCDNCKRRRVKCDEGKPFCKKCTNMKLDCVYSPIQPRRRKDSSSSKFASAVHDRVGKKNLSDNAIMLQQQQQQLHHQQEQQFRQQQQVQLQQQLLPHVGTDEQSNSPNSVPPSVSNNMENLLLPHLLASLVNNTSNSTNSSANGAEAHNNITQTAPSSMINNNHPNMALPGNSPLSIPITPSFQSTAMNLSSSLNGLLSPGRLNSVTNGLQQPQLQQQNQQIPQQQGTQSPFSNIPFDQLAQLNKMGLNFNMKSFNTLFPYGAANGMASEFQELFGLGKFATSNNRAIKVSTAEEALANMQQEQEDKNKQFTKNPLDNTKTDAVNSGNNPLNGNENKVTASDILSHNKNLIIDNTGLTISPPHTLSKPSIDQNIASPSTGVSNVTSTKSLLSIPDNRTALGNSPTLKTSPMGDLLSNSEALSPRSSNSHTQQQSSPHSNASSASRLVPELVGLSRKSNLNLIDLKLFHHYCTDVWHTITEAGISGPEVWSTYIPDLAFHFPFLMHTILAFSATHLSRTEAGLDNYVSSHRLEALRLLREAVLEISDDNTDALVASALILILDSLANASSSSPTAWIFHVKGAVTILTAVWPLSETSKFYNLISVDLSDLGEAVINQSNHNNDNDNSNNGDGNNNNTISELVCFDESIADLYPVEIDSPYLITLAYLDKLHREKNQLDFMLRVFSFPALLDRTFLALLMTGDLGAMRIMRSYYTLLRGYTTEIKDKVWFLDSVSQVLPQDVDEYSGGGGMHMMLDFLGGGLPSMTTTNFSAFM
Test: PBM E-score (8-mer binding enrichment) (E-score (-0.5 to 0.5)); higher = stronger / more preferred TF binding; most listed sequences are background and not binding sites
Conditions: protein concentration: 200 nM; construct: GST-full length
Summary of the method: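 For each ungapped eight-base word taken together with its reverse complement, the Universal PBM Analysis Suite assigned an E-score. Binding data came from GST-tagged yeast transcription factors, applied at about 100-200 nM, on universal all-10-mer Agilent arrays made double-stranded by primer extension. Fluorescent anti-GST marked bound protein, and scans were normalised with masliner.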

Row | Sequence | PBM E-score
1 | ACCTAGCT | -0.226
2 | AATGGAGT | -0.31
3 | AAAATCAT | 0.0355
4 | ATGTCCTG | -0.132
5 | ATTGGATG | 0.052
6 | GATCTTTA | 0.0747
7 | AGGTCTTC | -0.211
8 | GACCACCA | -0.196
9 | TAGACAAA | -0.169
10 | CCAGGCCA | -0.254
11 | AATGTTCG | 0.123
12 | ATCTCTAG | -0.0781
13 | ATACTTTA | -0.0928
14 | CCGTCCCC | -0.288
15 | CTGCATAC | 0.117
16 | CGGTACCC | -0.0308
17 | CCGCATGC | -0.0538
18 | AACTGGCA | -0.0403
19 | CCCAGCAG | -0.0598
20 | AACTCAAT | -0.0526
21 | AACAATGG | -0.165
22 | GCGAATAC | 0.248
23 | CAAGTTAA | -0.0911
24 | TTCCCCAA | -0.193
25 | ACTATACT | 0.144

Row | Sequence | PBM E-score
26 | CACGCTTC | -0.173
27 | CTGTTCAA | -0.144
28 | AAATAGCT | -0.0997
29 | GTGCGCTA | 0.0764
30 | CCCATTTC | -0.186
31 | AAACGACT | 0.437
32 | CTATCATA | 0.0505
33 | CAGCATCA | -0.102
34 | GCCATTTA | -0.111
35 | TATTTTGA | -0.252
36 | TCGTCCAA | -0.141
37 | CAAAGGCA | -0.225
38 | GCATGCCA | 0.0106
39 | ATGGGAAT | -0.088
40 | AGGAAGTG | -0.0138
41 | GTACGTGA | 0.324
42 | GCGTCTTA | -0.103
43 | GGCTGAAC | -0.0835
44 | ATGAAATG | -0.179
45 | CCGACACC | 0.0232
46 | ACGACGTA | 0.414
47 | GCGCAACA | -0.144
48 | CCGGTAAC | 0.0414
49 | AACTACCT | -0.177
50 | ATACGGTG | 0.388

Row | Sequence | PBM E-score
51 | ACGATGCC | 0.211
52 | ATCAACAA | 0.173
53 | ATAAGTTG | -0.0932
54 | CTAAAGCC | -0.241
55 | ACTTGACG | -0.0404
56 | ACCCTCTG | -0.19
57 | AAGGCCTA | -0.251
58 | CTTTGCGA | 0.192
59 | CGTGTTAG | 0.174
60 | GCATGTTA | 0.106
61 | GAAAGGTC | -0.0495
62 | CTAGTTTA | -0.185
63 | CATTTACA | -0.145
64 | CGCGCTTA | 0.161
65 | AAAGTGGA | -0.184
66 | ACTCATAT | -0.109
67 | AGGACGAG | -0.166
68 | GGTTGATA | -0.0357
69 | GAGAGGCC | -0.2
70 | AATTGTGT | -0.00438
71 | ATTCACGC | 0.0499
72 | ATGATGCC | -0.0956
73 | GACTACGA | 0.26
74 | AACCGGGC | 0.0502
75 | GAAGCCCA | -0.156

Row | Sequence | PBM E-score
76 | GATGTACC | 0.035
77 | CCGGTGCA | -0.219
78 | AGCTGTAA | -0.0964
79 | CTCATATC | -0.212
80 | CCTTTGAG | -0.152
81 | CCGGCAGG | -0.111
82 | TATGGTCA | 0.0603
83 | CCCTTCAG | -0.192
84 | CACCGATA | 0.0068
85 | ATCTCAGA | 0.00864
86 | AGTTATGG | -0.11
87 | GATAGACC | 0.0888
88 | CACCAGGC | -0.194
89 | ATAAAAAC | 0.0718
90 | TATAAGGA | 0.0687
91 | TAAGTAGA | -0.0232
92 | CACCTAAG | -0.0224
93 | ATTGAGCC | -0.188
94 | CCTCCTAA | -0.204
95 | CAGTTTGC | 0.0605
96 | CATAAAGG | -0.167
97 | CAGTCTCC | -0.157
98 | CTCGGTTC | 0.265
99 | AGAGTGCT | 0.0554
100 | AAGTATTC | -0.0359

Row | Sequence | PBM E-score
101 | ATTTGGCC | -0.258
102 | CAGCTCAA | -0.147
103 | AACGCCTT | -0.139
104 | ATCATAAT | 0.131
105 | CGGCGTTA | 0.0563
106 | GGATATAC | 0.141
107 | ACAGCTCA | -0.208
108 | TACGTAGA | 0.133
109 | ATAGACAG | -0.0267
110 | CATTCCGC | -0.249
111 | AACTTGAA | -0.192
112 | CTTTCTGA | -0.287
113 | AAATCACC | -0.0791
114 | GTCAAAGA | 0.0722
115 | GCACAGGA | -0.0683
116 | AATCCGCT | -0.122
117 | CCCTGCGA | -0.0943
118 | CGTCGCAA | 0.16
119 | CGTCGGCA | 0.0927
120 | CGGCGTGA | -0.142
121 | AGGGTGCA | -0.273
122 | CCTACCAA | -0.184
123 | ACAATGTA | -0.00071
124 | TCACATAA | 0.0336
125 | ATCGTTAC | 0.264

Row | Sequence | PBM E-score
126 | GCCCGAGC | -0.0385
127 | ACCACGCT | 0.0578
128 | ATAGGTTG | -0.267
129 | GAGAGTAA | -0.0985
130 | CCCCCATA | -0.235
131 | GCCCGTTA | -0.022
132 | GCAATACA | 0.0705
133 | ATATGCTG | -0.24
134 | CAAGATGC | -0.138
135 | CATCAGGC | -0.231
136 | GCTTCGTA | 0.441
137 | ACATCGCA | 0.0391
138 | CAAGTATC | -0.0723
139 | ATAAAATC | 0.0778
140 | ACGAGGTG | 0.397
141 | AGTCACTA | 0.0548
142 | AATTAACT | 0.0866
143 | AAGCGTAT | 0.235
144 | AAGCGCTA | -0.0259
145 | CGCGGGCA | 0.0325
146 | CCTCGCCG | -0.151
147 | CAGCCTAC | -0.0944
148 | CTCTACGC | 0.00503
149 | ACGGGCGC | 0.112
150 | CTTACGAC | 0.394

Row | Sequence | PBM E-score
151 | CGCATTAG | -0.122
152 | AAAGTCAG | -0.0469
153 | CGTGCGAG | 0.246
154 | AAAACAAG | -0.0792
155 | AGCACGTA | 0.109
156 | GCCCCTAA | -0.276
157 | CAGTGTGG | -0.311
158 | CAAACTGC | -0.0122
159 | GATACGCC | 0.162
160 | ACGCGTAC | 0.265
161 | CAGCGCAA | -0.0484
162 | AAGACATG | -0.112
163 | GGCCCAAA | 0.0966
164 | ACTGGACC | -0.0165
165 | GAATGTGC | -0.0225
166 | ATCATGAA | -0.0308
167 | CGTAAGCA | 0.118
168 | CAGTCCAG | -0.328
169 | AGATAAAC | 0.156
170 | CGGGCCAG | -0.0266
171 | CTTGGGGC | -0.13
172 | CCATGTGC | -0.0904
